The target in this assay is T1, BMP10 (UniProt O95393 317-424).
T1 sequence (looked up): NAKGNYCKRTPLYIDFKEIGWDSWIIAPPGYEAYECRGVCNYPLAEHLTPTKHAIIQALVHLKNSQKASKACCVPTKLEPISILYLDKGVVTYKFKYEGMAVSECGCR
Kind of assay: Biacore (SPR); Fc fusion captured with anti-Fc antibody, ligand injected. The method, then:
A Biacore™-based binding assay was used to compare ligand binding selectivity of the ALK6 variant-Fc dimeric complex (e.g., SEQ ID NO: 46) described above with that of ALK6 wt-Fc complexes (SEQ ID NO: 49). The Fc dimeric complexes were independently captured onto the system using an anti-Fe antibody. Ligands were injected and allowed to flow over the captured receptor protein.

B1: ALK6-Fc fusion polypeptide (SEQ ID NO: 55) (Fc fusion)
chain: KKEDGESTAPTPRPKVLRCKCHHHCPEDSVNNICSTDGYCFTMIEEDDSGLPVVTSGCMKYEGSDFQCRDTPIPHQRRSIECCTERNECNKDLHPTLPPVVIGPFFDGSIRTGGGGSGGGGSGGGGSGGG[human IgG1 Fc and a few adjoining residues not listed]
Consider B1, for which the binding result is “no binding”.

The record behind these values is patent US20250066450A1 (LASK PHARMA, published 2025).
